The other results are listed elsewhere or left out.
Each sequence was assayed on PfSIP2 AP2 domain 1 (GST-tagged) (assay: gcPBM binding intensity (ln(normalized median fluorescence intensity)); higher = stronger DNA binding).
Method in brief: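 DNA-binding domains from P. falciparum, fused to GST and produced in E. coli, were put on an Agilent 4 × 180k double-stranded probe array for 1 h in 1× PBS holding 1% milk, 0.2 mg/ml BSA, 0.5% salmon testes DNA and 0.03% Triton X-100. Probes were primer-extended, 36 bp long and drawn from intergenic genomic regions, with negative controls included. After Alexa488 anti-GST antibody detection and a 488 nm scan, binding intensity was set as the highest Masliner-normalised natural-log median intensity across replicate spots of either probe orientation.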

First: ACTTACACAGTTGATGGTACACTTTTATGATTTTGT [XGTACX_site3205]
Second: ATTTCATATTATGTAACACACAACAAGATAATCAAA [CACACA_site1960]
The “gcPBM binding intensity (ln)” value of the first is higher: 7.01 for the first, 6.85 for the second.

Compared with “TATATATAAAGGTGTACACATATATATATATCTGTA [CACACA_site5311]”, “ACAAGTTAAAATATTACACACATATAAATATATATA [CACACA_site3132]” is higher in “gcPBM binding intensity (ln)” value: 7.24 for the first, 7.25 for the second.

First: TTTTATTTACACAGTGGTACTATTAAAAATTAATGA [XGTACX_site6737]
Second: ATAAGGTTACAACAAACACACAAAGGAATATACTCA [CACACA_site6108]
The “gcPBM binding intensity (ln)” value of the first is higher: 6.96 for the first, 6.9 for the second.

First: ATAATATGAAAACACACACACACACTAGAAAAAAAA [CACACA_site5153]
Second: ATTATTTAAATGGATGCACACATGCATTAAATAAAA [CACACA_site5831]
The “gcPBM binding intensity (ln)” value of the first is lower: 7.02 for the first, 8.52 for the second.

Compared with “AAAAAAAAAAATATAACACACAACAAAAAAATATAT [CACACA_site1753]”, “AATATTTGTTAAAGAGGTACACCATTTGGTAGGGAA [XGTACX_site2165]” is lower in “gcPBM binding intensity (ln)” value: 7.1 for the first, 7.06 for the second.

First: TATTTTAACATTAGGTGTACATACAAAAATAAAAAT [XGTACX_site8577]
Second: TTTTTCAAATTTAATACACACACAAGTATATATTTA [CACACA_site9307]
The “gcPBM binding intensity (ln)” value of the first is higher: 7.37 for the first, 6.74 for the second.

Compared with “TTTTTCTTTTTACATACACACAAAAAAATAAAATAT [CACACA_site581]”, “AAATTAATATTATGTGCATGCACAAAGAGGAACGAC [TGCATGCA_site754]” is higher in “gcPBM binding intensity (ln)” value: 7.16 for the first, 9.49 for the second.

First: TGGTAATTTCTTTGATAAAAATTAATATGTATAAAT [XGTACX_negctrl_site152]
Second: TAATTAAATAAAAAAACACACACATATATACATATA [CACACA_site9141]
The “gcPBM binding intensity (ln)” value of the first is lower: 6.82 for the first, 6.84 for the second.

First: TCTATTAATTAATATACACACATTAGATATAAATAT [CACACA_site7241]
Second: ACACATATATAAATATGTACATATATATATATACAT [XGTACX_site1595]
The “gcPBM binding intensity (ln)” value of the first is lower: 7.05 for the first, 7.3 for the second.

First: AAAAAACAAAAAATTACACACATATATAAATATATT [CACACA_site2317]
Second: TAATAAAGGTGTAATACACACTATAAAAAGGAATAT [CACACA_site4756]
The “gcPBM binding intensity (ln)” value of the first is lower: 6.82 for the first, 7.1 for the second.

Compared with “ATGTGTATATATTATTGTACATATATATATATATAT [XGTACX_site4627]”, “AAAAAAAAAAAAAAAAGTACTAATTGAATATTAAAC [XGTACX_site3383]” is lower in “gcPBM binding intensity (ln)” value: 9.69 for the first, 7.52 for the second.

Going from “ACATATATATAAATATATATATATATATATATATAT [CACACA_negctrl_site874]” to “ATGGTAAGTATTTTATGTACATATATATTTATATAA [XGTACX_site4003]”, the “gcPBM binding intensity (ln)” value falls from 9.38 to 7.16.

Compared with “TACACCCATAGACACACACACACGCATAAAAAAAAA [CACACA_site8428]”, “TTATTATGCTGAGTACGTACTTATATAAGAATAGCA [XGTACX_site2955]” is lower in “gcPBM binding intensity (ln)” value: 7.55 for the first, 7.29 for the second.

Going from “TAAGTTCACAAAAAAAAAAAAAAATAAAGAAATAAA [CACACA_negctrl_site825]” to “AAATTATTTCCGTGTACACATAAATATATATTTTAT [CACACA_site5121]”, the “gcPBM binding intensity (ln)” value rises from 6.65 to 7.52.

Compared with “TATCATGTCTGTATTTCACACACGGATAATCATTTA [CACACA_site920]”, “ATGTATATAATAAGAACACACATATATTTAATTTAA [CACACA_site2941]” is higher in “gcPBM binding intensity (ln)” value: 6.63 for the first, 6.76 for the second.

Compared with “TGTTATATTTAATATAGTACATATTATTTTATATAT [XGTACX_site70]”, “AAAAATAAAATATATACATGCATATACATATTATAT [TGCATGCA_site668]” is lower in “gcPBM binding intensity (ln)” value: 7.03 for the first, 6.99 for the second.

Compared with “ATTTATATGCACCATTGTACGTTTTATAAAGTTTGG [XGTACX_site3755]”, “AGAAAATTAAAAAGAACACACAAATATATATAGAAT [CACACA_site3592]” is lower in “gcPBM binding intensity (ln)” value: 10.7 for the first, 7.2 for the second.

Going from “ATACATATATACATACGTACTTATATACATATGTGC [XGTACX_site5268]” to “AAAATAATATTTAATACACACACCAGTTCTGCAAAT [CACACA_site3736]”, the “gcPBM binding intensity (ln)” value falls from 7.16 to 6.89.

Going from “TAATAAGTAAAAAAATGTACCCGTTAGGTTTAATAA [XGTACX_site638]” to “TTTTTCTCTCTCTTATTATACAACAACAAAAAAAAA [GTGCAC_negctrl_site178]”, the “gcPBM binding intensity (ln)” value rises from 6.71 to 7.38.

First: AGAAATATATATATATATATATGTGACAATATTTGT [TGCATGCA_negctrl_site282]
Second: TTTTTTTATTTTATTTTATTATCTTATGTATCACAA [CACACA_negctrl_site1755]
The “gcPBM binding intensity (ln)” value of the first is higher: 7.6 for the first, 6.93 for the second.

First: ACAAAAAGGTAATTTACACACTGCATATAGGAATAA [CACACA_site2929]
Second: TTTGTTCATATTATTGTGCACTTAAACGTAACAAAA [GTGCAC_site9505]
The “gcPBM binding intensity (ln)” value of the first is lower: 6.96 for the first, 10.2 for the second.

Compared with “TTTATATTCTTAAGTGTGCACTATATATATATATAT [GTGCAC_site9719]”, “ACCCTATATGTAACTACACACCGCATATTGTTTACT [CACACA_site3071]” is lower in “gcPBM binding intensity (ln)” value: 10.1 for the first, 7.37 for the second.

— the supplement of paper PMC11417369
